Measurements as given in PMC6443781.
Results are given in words; binding and its absence hold for the method and conditions named. For some of these results: Binding seen in cells or lysates may run through a third protein. Some results given as binding are weak or reduced against the parent protein; the word gives no strength.

The chains behind the UniProt entries cited, without tags or fusion partners. Where a name states a change or a piece, a line headed by the entry shows the natural chain unless it says otherwise. A line that says so, or that is headed by a name, gives the form on record, which may keep a tag or linker. Residues count along the entry.
UniProt O60566: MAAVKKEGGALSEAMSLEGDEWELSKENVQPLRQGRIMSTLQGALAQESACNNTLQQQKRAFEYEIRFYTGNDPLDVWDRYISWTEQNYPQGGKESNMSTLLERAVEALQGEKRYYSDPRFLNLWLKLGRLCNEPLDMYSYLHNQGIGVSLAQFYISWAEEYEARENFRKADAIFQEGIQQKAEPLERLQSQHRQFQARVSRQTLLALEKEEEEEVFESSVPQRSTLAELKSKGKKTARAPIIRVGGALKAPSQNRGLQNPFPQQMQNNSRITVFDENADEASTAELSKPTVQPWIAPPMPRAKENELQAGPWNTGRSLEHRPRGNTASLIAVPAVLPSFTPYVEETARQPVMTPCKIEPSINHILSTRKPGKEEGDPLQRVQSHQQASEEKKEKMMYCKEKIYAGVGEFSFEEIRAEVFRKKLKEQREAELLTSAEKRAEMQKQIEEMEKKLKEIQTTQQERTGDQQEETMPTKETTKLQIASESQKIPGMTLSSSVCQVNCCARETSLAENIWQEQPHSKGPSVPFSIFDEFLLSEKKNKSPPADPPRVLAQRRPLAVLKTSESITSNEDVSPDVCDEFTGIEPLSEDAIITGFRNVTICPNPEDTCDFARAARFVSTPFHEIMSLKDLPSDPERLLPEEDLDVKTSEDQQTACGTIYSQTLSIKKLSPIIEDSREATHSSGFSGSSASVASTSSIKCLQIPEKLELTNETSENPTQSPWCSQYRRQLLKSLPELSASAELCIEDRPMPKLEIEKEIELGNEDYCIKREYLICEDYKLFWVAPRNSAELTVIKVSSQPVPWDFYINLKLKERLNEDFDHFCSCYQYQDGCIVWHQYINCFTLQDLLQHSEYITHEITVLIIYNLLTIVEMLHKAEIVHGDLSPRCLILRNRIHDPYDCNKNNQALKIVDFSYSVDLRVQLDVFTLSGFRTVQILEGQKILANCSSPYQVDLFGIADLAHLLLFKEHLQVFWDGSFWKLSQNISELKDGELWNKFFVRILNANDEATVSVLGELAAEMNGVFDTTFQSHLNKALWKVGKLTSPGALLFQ
UniProt Q96CW1: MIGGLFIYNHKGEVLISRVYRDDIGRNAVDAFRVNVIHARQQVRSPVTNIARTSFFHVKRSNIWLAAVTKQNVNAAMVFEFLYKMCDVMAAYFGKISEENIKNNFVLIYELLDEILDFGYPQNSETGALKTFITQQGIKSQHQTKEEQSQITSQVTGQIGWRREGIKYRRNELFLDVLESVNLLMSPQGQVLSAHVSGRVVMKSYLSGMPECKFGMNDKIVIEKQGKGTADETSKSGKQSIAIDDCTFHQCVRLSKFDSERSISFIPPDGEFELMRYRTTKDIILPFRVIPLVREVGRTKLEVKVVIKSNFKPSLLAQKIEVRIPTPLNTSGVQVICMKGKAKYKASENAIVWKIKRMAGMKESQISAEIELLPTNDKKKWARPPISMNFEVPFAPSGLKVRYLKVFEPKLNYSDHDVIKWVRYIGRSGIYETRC
UniProt P35568: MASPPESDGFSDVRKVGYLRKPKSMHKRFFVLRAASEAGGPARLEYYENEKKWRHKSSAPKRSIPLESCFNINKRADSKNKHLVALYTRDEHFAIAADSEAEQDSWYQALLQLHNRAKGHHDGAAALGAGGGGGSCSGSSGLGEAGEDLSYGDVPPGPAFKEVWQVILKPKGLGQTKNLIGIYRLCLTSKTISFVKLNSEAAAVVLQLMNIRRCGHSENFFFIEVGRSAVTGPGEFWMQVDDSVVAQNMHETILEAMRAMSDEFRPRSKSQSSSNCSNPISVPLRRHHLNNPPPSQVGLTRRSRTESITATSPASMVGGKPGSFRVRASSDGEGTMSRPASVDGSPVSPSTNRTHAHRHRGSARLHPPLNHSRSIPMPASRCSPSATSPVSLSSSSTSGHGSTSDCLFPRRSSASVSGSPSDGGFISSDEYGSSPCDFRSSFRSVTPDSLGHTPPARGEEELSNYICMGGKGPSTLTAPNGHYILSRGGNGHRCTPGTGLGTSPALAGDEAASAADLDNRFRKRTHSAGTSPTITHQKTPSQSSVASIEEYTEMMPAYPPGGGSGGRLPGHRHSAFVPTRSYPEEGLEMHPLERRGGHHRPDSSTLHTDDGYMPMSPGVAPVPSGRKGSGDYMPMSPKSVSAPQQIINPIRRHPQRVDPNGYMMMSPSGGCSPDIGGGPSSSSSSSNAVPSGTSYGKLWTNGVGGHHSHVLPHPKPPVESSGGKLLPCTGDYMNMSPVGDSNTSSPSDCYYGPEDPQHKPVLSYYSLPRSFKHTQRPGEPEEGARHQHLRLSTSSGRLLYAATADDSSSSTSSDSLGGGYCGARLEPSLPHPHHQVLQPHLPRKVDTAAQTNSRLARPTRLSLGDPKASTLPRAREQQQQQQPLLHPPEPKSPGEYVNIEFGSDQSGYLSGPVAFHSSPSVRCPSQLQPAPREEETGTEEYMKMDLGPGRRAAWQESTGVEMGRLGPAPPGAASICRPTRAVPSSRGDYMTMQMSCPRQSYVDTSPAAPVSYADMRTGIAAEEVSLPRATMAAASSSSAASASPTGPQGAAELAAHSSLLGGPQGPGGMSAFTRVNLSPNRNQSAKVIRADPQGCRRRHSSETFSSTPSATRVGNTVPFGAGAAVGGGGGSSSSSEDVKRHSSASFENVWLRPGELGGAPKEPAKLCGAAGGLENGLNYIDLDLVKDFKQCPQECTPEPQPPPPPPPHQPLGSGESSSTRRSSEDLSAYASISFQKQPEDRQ
IVT IRS1 (residues 449–864) 3YA (Y612A/Y632A/Y662A) (P35568, form named): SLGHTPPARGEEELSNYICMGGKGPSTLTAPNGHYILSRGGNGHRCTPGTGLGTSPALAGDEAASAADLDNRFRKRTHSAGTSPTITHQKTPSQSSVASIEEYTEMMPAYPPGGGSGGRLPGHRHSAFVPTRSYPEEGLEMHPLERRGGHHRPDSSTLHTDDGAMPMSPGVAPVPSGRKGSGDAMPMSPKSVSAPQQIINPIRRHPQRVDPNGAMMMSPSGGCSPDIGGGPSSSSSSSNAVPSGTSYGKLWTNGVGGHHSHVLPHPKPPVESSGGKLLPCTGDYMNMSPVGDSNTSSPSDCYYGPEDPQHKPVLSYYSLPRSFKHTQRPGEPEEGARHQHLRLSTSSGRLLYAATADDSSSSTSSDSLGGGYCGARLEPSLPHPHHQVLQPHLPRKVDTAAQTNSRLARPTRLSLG
UniProt P63010: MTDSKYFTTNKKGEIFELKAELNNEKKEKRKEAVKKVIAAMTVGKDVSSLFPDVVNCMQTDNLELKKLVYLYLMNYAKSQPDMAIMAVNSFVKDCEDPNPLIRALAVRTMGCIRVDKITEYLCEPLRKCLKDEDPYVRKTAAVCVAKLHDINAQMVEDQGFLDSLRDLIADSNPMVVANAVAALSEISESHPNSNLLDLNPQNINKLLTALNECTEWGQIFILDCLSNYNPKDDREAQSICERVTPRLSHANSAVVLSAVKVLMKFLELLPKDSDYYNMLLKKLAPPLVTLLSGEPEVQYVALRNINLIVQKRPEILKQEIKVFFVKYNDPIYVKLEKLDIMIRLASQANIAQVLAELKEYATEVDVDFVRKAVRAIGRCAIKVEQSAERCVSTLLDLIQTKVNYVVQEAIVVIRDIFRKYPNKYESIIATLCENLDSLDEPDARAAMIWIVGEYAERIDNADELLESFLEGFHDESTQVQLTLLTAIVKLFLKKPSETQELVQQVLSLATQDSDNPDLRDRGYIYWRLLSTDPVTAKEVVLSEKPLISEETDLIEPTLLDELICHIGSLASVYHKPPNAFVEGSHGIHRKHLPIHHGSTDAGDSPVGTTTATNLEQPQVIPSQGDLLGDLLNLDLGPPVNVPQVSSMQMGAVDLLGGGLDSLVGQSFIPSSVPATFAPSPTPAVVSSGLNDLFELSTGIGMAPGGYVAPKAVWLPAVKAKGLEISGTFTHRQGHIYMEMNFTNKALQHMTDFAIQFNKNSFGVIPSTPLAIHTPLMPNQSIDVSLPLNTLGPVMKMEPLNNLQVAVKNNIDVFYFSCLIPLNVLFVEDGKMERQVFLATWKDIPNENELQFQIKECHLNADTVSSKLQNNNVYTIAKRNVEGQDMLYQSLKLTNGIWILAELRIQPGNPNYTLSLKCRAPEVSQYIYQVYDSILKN

T1: mutant IRS1 peptide with Y612 and M615 replaced by alanine (AMPAS) (human)
T1 sequence (peptide): CHTDDGAMPASPGVA


Legend:
[1] = biological target: T1, mutant IRS1 peptide with Y612 and M615 replaced by alanine (AMPAS) (human); experiment: pull-down; IRS1 peptides coupled to SulfoLink beads; 10 µl beads with 1 µg purified AP2M1 (160–435), Buffer A (50 mM Tris pH 7.5, 0.2 M NaCl, 0.1% NP-40), 4 °C overnight; SDS-PAGE, Coomassie; both purified
[2] = biological target: Myc-BUBR1 full length (WT) (human) (UniProt O60566); experiment: co-IP; 293FT cells transfected with GFP-AP2B1 and Myc-BUBR1 plasmids; anti-Myc-BUBR1 IP from total cell lysate, blotted with anti-Myc and anti-AP2B1 or anti-GFP
[3] = biological target: GST-AP2M1 (full-length human AP2M1) (human) (UniProt Q96CW1); experiment: pull-down; GST-AP2M1 on glutathione beads incubated with IVT IRS1 or IRS2 products diluted in cell lysis buffer, 4 °C, 2 h; Coomassie or immunoblot; only the target purified

Row | binding [3] | Molecule | also measured
1 | binds | IVT IRS1 (residues 449–864) 3YA (Y612A/Y632A/Y662A) (from UniProt P35568 449-864) (domain or fragment) | 
2 | binds | IVT Myc-IRS1 YXXΦ-containing central region (residues 449–679) (from UniProt P35568 449-679) (domain or fragment) | 
3 | binds | In vitro-translated IRS1 (residues 449–864) (from UniProt P35568 449-864) (domain or fragment) | 

More lines, now with the values behind:

Row | Molecule | binding [3] | also measured
4 | AP2M1 (residues 160–435) (from UniProt Q96CW1 160-435) (domain or fragment) |  | binding [1]: no binding (tested: 1 μg AP2M1 on 10 µl peptide beads)
5 | GFP-AP2B1 full length (FL) (from UniProt P63010 1-937) |  | binding [2]: binds
6 | in vitro-translated (IVT) Myc-IRS1 full-length (from UniProt P35568 1-1242) | binds | 
7 | IVT IRS2 fragment (residues 520–888) (domain or fragment, UniProt P81122 520-888) SIAETPPARDGSGGELYGYMSMDRPLSHCGRPYRRVSGDGAQDLDRGLRKRTYSLTTPARQRQVPQPSSASLDEYTLMRATFSGSSGRLCPSFPASSPKVAYNPYPEDYGDIEIGSHKSSSSNLGADDGYMPMTPGAALRSGGPNSCKSDDYMPMSPTSVSAPKQILQPRLAAALPPSGAAVPAPPSGVGRTFPVNGGGYKASSPAESSPEDSGYMRMWCGSKLSMENPDPKLLPNGDYLNMSPSEAGTAGTPPDFSAALRGGSEGLKGIPGHCYSSLPRSYKAPCSCSGDNDQYVLMSSPVGRILEEERLEPQATPGAGTFGAAGGSHTQPHHSAVPSSMRPSAIGGRPEGFLGQRCRAVRPTRLSLE | binds | 
